This is an account of results in the BET-seq Pho4 binding data (Le et al. 2018).

Some of the results follow. The energies were worked out here from pooled read counts, against the library average; single values are noisy.

The experiment has as its target T1, Pho4 (S. cerevisiae) (UniProt P07270).
T1 sequence: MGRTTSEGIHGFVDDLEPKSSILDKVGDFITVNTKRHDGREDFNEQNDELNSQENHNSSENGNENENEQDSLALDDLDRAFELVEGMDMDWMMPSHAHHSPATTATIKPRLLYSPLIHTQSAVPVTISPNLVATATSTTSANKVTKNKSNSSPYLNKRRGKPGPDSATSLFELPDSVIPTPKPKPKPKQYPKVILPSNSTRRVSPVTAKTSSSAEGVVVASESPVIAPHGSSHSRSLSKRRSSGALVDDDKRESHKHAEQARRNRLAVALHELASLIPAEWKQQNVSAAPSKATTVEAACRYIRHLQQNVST
Nature of the experiment: relative binding free energy (BET-seq); higher = weaker binding. To be noted: reference: library average.
For the sequence GCCGGCACGTGGGTGA, the “relative binding free energy” value was -0.14 kcal/mol.
To ATTAACACGTGATTGT belongs -0.04 kcal/mol; to TGGCGCACGTGTGTTG, -0.1 kcal/mol.
As to ATGACCACGTGAGGTG, the “relative binding free energy” value came to 0.22 kcal/mol.
Regarding GTTGGCACGTGGTGAT, the “relative binding free energy” value was -0.01 kcal/mol.
Turning to GGGGCCACGTGGGTAT, the “relative binding free energy” value was -0.11 kcal/mol.
ATATGCACGTGTCGGA: the “relative binding free energy” value was 0.03 kcal/mol.
As for AGCGCCACGTGGGGGC, the figure is -0.21 kcal/mol; as for GCAGTCACGTGATAGG, 0.26 kcal/mol.
As for AATGGCACGTGGATTG, the figure is -0.16 kcal/mol; as for ACTTACACGTGTGGGT, 0.04 kcal/mol; as for AATCGCACGTGGGGTG, -0.18 kcal/mol.
To GATGGCACGTGTATTT belongs 0.11 kcal/mol; to TGTTACACGTGAACTG, 0.29 kcal/mol; to ATTCGCACGTGGCGTG, -0.17 kcal/mol.
As for GGTTTCACGTGTGTCG, the “relative binding free energy” value worked out at 0.34 kcal/mol.
Turning to AGGTGCACGTGAGGTG, the “relative binding free energy” value worked out at 0.21 kcal/mol.
As for TTATCCACGTGTTTGG, the figure is -0.05 kcal/mol.
To GATCACACGTGGGTTT belongs 0.06 kcal/mol; to TGCTACACGTGATTGG, 0.14 kcal/mol; to GTTACCACGTGTTTAT, 0.11 kcal/mol.
Consider TGGCGCACGTGTGGTG, for which the “relative binding free energy” value was -0.08 kcal/mol.
Regarding TTTCTCACGTGTGTAT, the “relative binding free energy” value is 0.28 kcal/mol.
As for TAGCTCACGTGGTATT, the figure is 0.02 kcal/mol.
Consider AGGCGCACGTGTGTGG, for which the “relative binding free energy” value was -0.07 kcal/mol.
Turning to TTTGTCACGTGCGTCG, the “relative binding free energy” value is -0.13 kcal/mol.
As for CTTGTCACGTGATGTA, the figure is 0.22 kcal/mol.
Regarding CGTGTCACGTGGATTG, the “relative binding free energy” value came out at 0.14 kcal/mol.
As for GTGTCCACGTGTGGCA, the figure is 0.21 kcal/mol; as for ATAGTCACGTGGACTT, 0.06 kcal/mol.
To TCTTGCACGTGTGGGC belongs 0.07 kcal/mol; to GTTATCACGTGTCTGG, 0.18 kcal/mol.
For the sequence TTACGCACGTGATGTA, the “relative binding free energy” value was -0.02 kcal/mol.
As for GGCGACACGTGTTGTG, the figure is 0.04 kcal/mol.
To TTAAGCACGTGGGCAA belongs -0.1 kcal/mol.
To ATCGGCACGTGGGCTG belongs -0.36 kcal/mol; to CGGTCCACGTGAGGTG, 0.1 kcal/mol.
As to TTAGGCACGTGGCCTG, the “relative binding free energy” value is -0.26 kcal/mol.
As for CGATTCACGTGTATGT, the figure is 0.18 kcal/mol.
As for CGGTACACGTGGGTCG, the figure is -0.11 kcal/mol; as for ATCAGCACGTGTTAGG, -0.01 kcal/mol.
ATTAACACGTGTGGTT: the “relative binding free energy” value worked out at 0.11 kcal/mol.
Turning to GTGTACACGTGCTAGT, the “relative binding free energy” value was found to be 0.06 kcal/mol.
As for TTTGTCACGTGTCCAG, the figure is 0.11 kcal/mol; as for CTCGTCACGTGGGGTA, -0.13 kcal/mol; as for TTAGGCACGTGAAGGT, 0.06 kcal/mol.
As for GTGGGCACGTGAGTTT, the figure is 0.2 kcal/mol.
As for ATGGGCACGTGCAAGT, the figure is -0.05 kcal/mol.
With GTGAGCACGTGAGATT, the “relative binding free energy” value came out at 0.17 kcal/mol.
To TAGGGCACGTGATTAT belongs -0.03 kcal/mol.
With AGGGGCACGTGGGGAT, the “relative binding free energy” value was -0.14 kcal/mol.
With GGGCACACGTGGCTGG, the “relative binding free energy” value is 0.08 kcal/mol.
As for ATCGTCACGTGTTGTA, the “relative binding free energy” value is 0.16 kcal/mol.
As for TGTGACACGTGTATAG, the figure is 0.1 kcal/mol; as for TGTTCCACGTGTGGTA, 0.11 kcal/mol.
To ATGTGCACGTGGTGTC belongs -0.16 kcal/mol; to TTGGTCACGTGAAACT, 0.35 kcal/mol; to GCTAGCACGTGTCGGT, 0.13 kcal/mol.
As for ATTTACACGTGATAGA, the figure is 0.27 kcal/mol; as for GGAGTCACGTGAGAGT, 0.24 kcal/mol; as for AGTGCCACGTGATGTG, 0.09 kcal/mol.
Consider AGTGGCACGTGGATGA, for which the “relative binding free energy” value was -0.07 kcal/mol.
As for TGTTGCACGTGGGTGG, the figure is -0.02 kcal/mol; as for CGTGTCACGTGGGGGT, -0.06 kcal/mol; as for TAGTTCACGTGTGCTG, 0.14 kcal/mol.
TTATTCACGTGCTTAG: the “relative binding free energy” value came out at 0.22 kcal/mol.
As for TGAGACACGTGCAGTG, the figure is 0.07 kcal/mol; as for TTAGTCACGTGTAAGC, 0.06 kcal/mol; as for GTGGACACGTGAGGGT, 0.24 kcal/mol.
To TTGATCACGTGGATGG belongs 0.14 kcal/mol; to TGGTACACGTGAGGTA, 0.33 kcal/mol.
As for TTGTACACGTGGCTAT, the figure is -0.07 kcal/mol.
Turning to TCAGGCACGTGTGGCT, the “relative binding free energy” value was 0.02 kcal/mol.
As for GGTCACACGTGGTTTG, the figure is 0.06 kcal/mol; as for TGTGTCACGTGTGGAG, 0.09 kcal/mol.
To GGAGTCACGTGTCTTT belongs 0.16 kcal/mol; to TGAGTCACGTGGAGTG, 0.04 kcal/mol.
To GGGTACACGTGGTCAA belongs 0.08 kcal/mol.
On to GTATACACGTGTGGCG, for which the “relative binding free energy” value came to 0.02 kcal/mol.
For the sequence TTTTACACGTGGTATG, the “relative binding free energy” value amounted to 0.07 kcal/mol.
As for TAGGTCACGTGAAGGA, the figure is 0.18 kcal/mol; as for TATCTCACGTGTAGGG, 0.21 kcal/mol; as for ATCTGCACGTGGGCGT, -0.12 kcal/mol.
As for TTTTCCACGTGGCTTT, the figure is 0.07 kcal/mol.
As for GGATTCACGTGGTTCG, the figure is 0.32 kcal/mol.
In the case of CGTAGCACGTGACGGG, the “relative binding free energy” value worked out at 0.03 kcal/mol.
To TGGTACACGTGATGAA belongs 0.16 kcal/mol.
To GCGTGCACGTGGTAGA belongs -0.03 kcal/mol.
As for TGTTGCACGTGCAGGG, the figure is -0.07 kcal/mol.
Take TTTACCACGTGAGTGG: the “relative binding free energy” value turned out to be 0.14 kcal/mol.
To GGAAACACGTGGGGTC belongs -0.04 kcal/mol; to AGGTTCACGTGAGGGT, 0.36 kcal/mol.
To AAGGCCACGTGTGTAT belongs -0.07 kcal/mol; to ATAATCACGTGTGTTG, 0.12 kcal/mol.
To TTAAGCACGTGGGGAT belongs -0.09 kcal/mol.
For GCAAGCACGTGGGTTG, the “relative binding free energy” value is -0.24 kcal/mol.
For the sequence TTTTTCACGTGAGTGT, the “relative binding free energy” value amounted to 0.31 kcal/mol.
Regarding AGTTTCACGTGCGTTA, the “relative binding free energy” value was 0.17 kcal/mol.
To AGGATCACGTGTTGGG belongs 0.2 kcal/mol; to GATTTCACGTGAGTGT, 0.35 kcal/mol.
As for ATTTGCACGTGTAATT, the figure is 0.1 kcal/mol; as for TAGTGCACGTGAGAAT, 0.17 kcal/mol; as for AATAGCACGTGTTCGT, -0.21 kcal/mol.
To AGGCTCACGTGGTTAA belongs 0.19 kcal/mol; to AGGTTCACGTGTAGCG, 0.16 kcal/mol.
In the case of GGAGGCACGTGTTTTG, the “relative binding free energy” value was -0.06 kcal/mol.
As for TGTGTCACGTGTTAAA, the figure is 0.09 kcal/mol; as for CGTGGCACGTGGGAAA, -0.17 kcal/mol.
As for CGAAGCACGTGATGGG, the figure is 0.02 kcal/mol; as for GGTAGCACGTGACATG, 0.16 kcal/mol; as for GGGTTCACGTGGGTCG, 0.21 kcal/mol.
As for TTGGGCACGTGTGAGC, the figure is 0.02 kcal/mol; as for TTAGACACGTGCGTTG, -0.03 kcal/mol.
For the sequence TAGTTCACGTGGTAAC, the “relative binding free energy” value amounted to 0.24 kcal/mol.
With TAGGGCACGTGGGTAA, the “relative binding free energy” value was -0.23 kcal/mol.
As for TGAGTCACGTGAGGAT, the figure is 0.46 kcal/mol; as for AGAAGCACGTGGAGGA, -0.11 kcal/mol; as for TTGGTCACGTGTAATA, 0.18 kcal/mol.
In the case of TTTTACACGTGATTGG, the “relative binding free energy” value was determined as 0.21 kcal/mol.
As for ACTTTCACGTGATTTT, the figure is 0.24 kcal/mol; as for TAATTCACGTGTTGGA, 0.25 kcal/mol; as for ATGGACACGTGTGGGC, 0.08 kcal/mol.
As for TGTGACACGTGAGAGT, the figure is 0.14 kcal/mol.
As for ATTTGCACGTGACCGG, the figure is 0.05 kcal/mol; as for GGGAACACGTGTGTAA, 0.1 kcal/mol; as for GTCATCACGTGGAGGG, 0.13 kcal/mol.
GTCGTCACGTGTGGGT: the “relative binding free energy” value worked out at 0.1 kcal/mol.
To TCGTGCACGTGGTGGG belongs -0.07 kcal/mol.
As for CGGGGCACGTGGGTTT, the figure is -0.2 kcal/mol; as for TTTGTCACGTGATTAC, 0.29 kcal/mol.
Turning to TTGGACACGTGAAGTG, the “relative binding free energy” value amounted to 0.29 kcal/mol.
As for AGGGGCACGTGGACCT, the figure is 0 kcal/mol.
In the case of TCAGTCACGTGATTTG, the “relative binding free energy” value was found to be 0.31 kcal/mol.
To TAGGTCACGTGTGACG belongs 0.16 kcal/mol; to CGAGGCACGTGCAAGG, -0.01 kcal/mol; to ATGAACACGTGGGATG, 0 kcal/mol.
Regarding GTAGTCACGTGGCGGA, the “relative binding free energy” value worked out at 0.05 kcal/mol.
For the sequence GGGAACACGTGAGTTT, the “relative binding free energy” value came out at 0.53 kcal/mol.
To CAAAGCACGTGTGGGG belongs -0.16 kcal/mol; to AAGTTCACGTGTTGCG, 0.34 kcal/mol; to AAGCGCACGTGAGTGT, 0.1 kcal/mol.
To GGTTACACGTGGTTTG belongs 0.15 kcal/mol; to ATATTCACGTGAGCGT, 0.13 kcal/mol; to TTGGACACGTGGCTTT, 0.06 kcal/mol.
In the case of AATGTCACGTGTAGTG, the “relative binding free energy” value stood at 0.05 kcal/mol.
To TTATACACGTGATATA belongs 0.28 kcal/mol.
